Source: patent publication US20170002056A1 (CHENGDU KANGHONG BIOTECHNOLOGIES, published 2017)
Changes are numbered by the printed parent chain.

T1: Human VEGF (rhVEGF165, R&D Systems 293-VE) (human, UniProt P15692 27-191)
T1 sequence (looked up): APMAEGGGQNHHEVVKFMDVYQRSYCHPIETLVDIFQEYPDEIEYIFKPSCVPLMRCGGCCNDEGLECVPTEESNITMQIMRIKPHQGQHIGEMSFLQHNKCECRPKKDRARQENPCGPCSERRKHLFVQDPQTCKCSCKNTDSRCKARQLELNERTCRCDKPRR

B1: Fusion protein KH03 (Fc fusion)
chain: GRPFVEMYSEIPEIIHMTEGRELVIPCRVTSPNITVTLKKFPLDTLIPDGKRIIWDSRKGFIISNATYKEIGLLTCEATVNGHLYKTNYLTHRQTNTIIDVVLSPSHGIELSVGEKLVLNCTARTELNVGIDFNWEYPSSKHQHKKLVNRDLKTQSGSEMKKFLSTLTIDGVTRSDQGLYTCAASSGLMTKKNSTFVRVHEKPFVAFGSGMESLVEATVGERVRIPAKYLGYPPPEIKWYKNGIPLESNHTIKAGHVLTIMEVSERDTGNYTVILTNPISKEKQSHVVSLPVYVPPGPG[omitted - human IgG1 Fc]
notes: also called VEGF receptor fusion protein; plasmid/clone 812
B2: Fusion protein KH01 (Fc fusion)
chain: B1 chain with P291V
notes: also called VEGF receptor fusion protein; plasmid/clone 610
B3: Fusion protein KH02 (Fc fusion)
chain: B1 chain with P291R
notes: also called VEGF receptor fusion protein; plasmid/clone 711
B4: Fusion protein KH04 (Fc fusion)
chain: B1 chain with L290R
notes: also called VEGF receptor fusion protein; plasmid/clone 915

Assays:
[1] = target: T1, Human VEGF (rhVEGF165, R&D Systems …); test: cell-based or functional assay
[2] = target: T1, Human VEGF (rhVEGF165, R&D Systems …); test: BLI (Octet QKe), biotin-hVEGF on streptavidin sensor, fusion protein in solution
Experimental: The binding affinity between human VEGF receptor fusion protein and human VEGF was detected on ForteBio bio-molecular interaction detector (Octet QKe, Pall) by Biolyayer-Interferometry(BLI). Human VEGF (catalog no. 293-VE-010, R&D SYSTEMS) and NHS-LCLC-biotin (catalog no. 21338, Thermo) were mixed evenly at 1:3 molar ratio, and placed at room temperature for 1 h, then the remaining NHS-LCLC-biotin was removed, giving the final labelled product biotin-hVEGF at 50 μg/ml. 50 μg/ml biotin-hVEGF was loaded on streptavidin sensor. Samples to be tested were formulated to different concentrations (600 nM, 200 nM, 66.7 nm, 22.2 nM, 7.4 nm, 2.46 nM, 0.82 nM, respectively) by sample diluting buffer (PBS, 0.1% BSA, 0.02% Tween-20, 0.003% NaN₃). The sample diluting buffer was served as blank control. Parameters for binding kinetics between hVEGF and receptor fusion protein were detected under kinetics analysis mode.

[3] = target: T1, Human VEGF (rhVEGF165, R&D Systems …); test: ELISA, rhVEGF165 coated on plate, detection with anti-human IgG-Fc HRP; sample after 10 days at high temperature
Experimental: (§1) Samples (fusion proteins KH02 and KH05) were diluted to 1600 ng/ml according to initial protein concentration. The volume of the 1600 ng/ml sample should be at least above 800 μl. A 4× serial dilution was conducted by adding 600 μl diluting solution to 200 μl sample, and such a diluting operation was repeated in series to obtain 8 different concentration gradients (including 1600 ng/ml).
(§2) The plate was rinsed as described above. Human IgG-Fc antibody HRP 0.5 μl was diluted by 10 ml blocking solution and the mixture was mixed evenly. 100 μl/well diluted test antibody was added to wells, and the plate was incubated at 37° C. for 1 h. 8) Color Development
(§3) 50 μl/well stop solution was added and the reaction was terminated. The microplate was placed under microplate reader to get a readout under 450 nm.

[4] = target: T1, Human VEGF (rhVEGF165, R&D Systems …); test: ELISA, rhVEGF165 coated on plate, detection with anti-human IgG-Fc HRP; sample at Day 0
Experimental: as §1, §2, §3

[5] = target: T1, Human VEGF (rhVEGF165, R&D Systems …); test: ELISA, rhVEGF165 coated on plate, detection with anti-human IgG-Fc HRP; sample after 5 days at high temperature
Experimental: as §1, §2, §3

Binder	EC50 (nM), inhibition of VEGF-stimulated proliferation of HUVEC cells (CCK8) [1] [nM]	Kd [2] [nM]	koff [2] [s⁻¹]	kon [2] [M⁻¹ s⁻¹]	Kd [3] [nM]	Kd [4] [nM]	Kd [5] [nM]
B1	2.11	1.17	0.000101	86700			
B2	1.93		3.53e-05	69100			
B3	1.26	0.33	1.7e-05	51600	0.0705	0.0225	0.0464
B4	1.43	0.35	7.27e-05	206000			
